Test results from paper PMC4336329 (PLoS ONE, 2015).
Hit rate of the full screen: of about 310,000 compounds, about 14,000 (4.5%) showed an effect of 50% or more. Effects have a minus sign here. This is one part of the list.

Target: human ether-à-go-go-related gene (hERG) potassium channel (human, UniProt Q12809)
Assay: primary screen, population patch clamp on CHO cells stably expressing hERG
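Further: peak tail current of the secondary pulse compared with the same well before compound.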

Chain of human ether-à-go-go-related gene (hERG) potassium channel (Q12809 whole entry, looked up): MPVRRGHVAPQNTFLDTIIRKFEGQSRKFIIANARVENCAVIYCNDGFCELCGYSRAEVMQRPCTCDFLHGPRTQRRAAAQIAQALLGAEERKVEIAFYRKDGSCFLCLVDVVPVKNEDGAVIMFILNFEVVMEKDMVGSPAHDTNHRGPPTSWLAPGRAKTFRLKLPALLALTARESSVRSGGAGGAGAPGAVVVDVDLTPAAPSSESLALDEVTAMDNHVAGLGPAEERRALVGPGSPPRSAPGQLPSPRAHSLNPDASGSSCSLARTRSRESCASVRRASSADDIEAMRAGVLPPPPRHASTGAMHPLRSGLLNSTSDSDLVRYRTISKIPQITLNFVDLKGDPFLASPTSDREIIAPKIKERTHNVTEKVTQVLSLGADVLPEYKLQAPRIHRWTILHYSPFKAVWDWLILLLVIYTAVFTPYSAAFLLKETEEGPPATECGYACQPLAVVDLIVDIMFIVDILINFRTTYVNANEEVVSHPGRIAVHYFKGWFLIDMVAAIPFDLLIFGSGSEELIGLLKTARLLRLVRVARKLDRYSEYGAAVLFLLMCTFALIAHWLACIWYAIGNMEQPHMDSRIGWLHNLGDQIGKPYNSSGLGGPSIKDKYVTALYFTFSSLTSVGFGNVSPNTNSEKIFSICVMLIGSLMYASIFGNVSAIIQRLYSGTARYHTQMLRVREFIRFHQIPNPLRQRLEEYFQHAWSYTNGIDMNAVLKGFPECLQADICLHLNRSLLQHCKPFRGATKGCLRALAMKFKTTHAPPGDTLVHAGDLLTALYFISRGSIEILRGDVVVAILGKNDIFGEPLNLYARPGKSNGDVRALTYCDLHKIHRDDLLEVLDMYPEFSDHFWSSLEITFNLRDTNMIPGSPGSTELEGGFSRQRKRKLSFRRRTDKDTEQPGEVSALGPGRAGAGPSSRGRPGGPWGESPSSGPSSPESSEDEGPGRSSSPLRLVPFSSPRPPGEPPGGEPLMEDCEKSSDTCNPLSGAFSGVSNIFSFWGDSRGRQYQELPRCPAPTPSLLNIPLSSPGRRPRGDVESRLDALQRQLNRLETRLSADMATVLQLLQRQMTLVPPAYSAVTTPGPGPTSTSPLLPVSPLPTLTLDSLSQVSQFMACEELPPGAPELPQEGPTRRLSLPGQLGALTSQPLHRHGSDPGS

SMILES	hERG current change (%, negative = inhibition) at 10uM
CCOC(=O)C1CCCN(C(=O)c2ccco2)C1 (stereo not drawn)	-1.06%
Cc1nc(S(=O)(=O)Cc2ccccc2Cl)nc2c1CCC2	24.1%
COc1ccc(C(=O)CSc2nnc(-c3cc(C)on3)o2)cc1	9.46%
Cc1cccc(OCc2nnc(SCC(=O)N3CCCCC3)o2)c1	2.26%
O=C(Cc1ccc(Cl)cc1)Nc1ccc(C(=O)N2CCCCC2)cc1	14.5%
N#C/C(=C\c1ccc(-c2ccccc2[N+](=O)[O-])o1)C(N)=O	24.6%
CCOc1ccccc1NC(=O)N1CCC2(CC1)OCCO2	-7.18%
CN(C)c1ccnc(SCc2ccccc2Cl)c1C#N	8.48%
Cc1cc(NC(=O)c2cc(-c3cccnc3)nc3c(C)c(C)ccc23)no1	-1.82%
O=C(NCc1ccco1)/C(=C\c1ccco1)NC(=O)c1ccc(Br)o1	-11.8%
CC(C)c1ccc(-c2nnn(CC(=O)N3CCCCC3)n2)cc1	1.06%
COc1ccc(S(=O)(=O)N2CCOCC2)cc1C(=O)NCc1ccccc1CN1CCCC1	-20.6%
Cc1ccc2nc(CCc3nc4ccc(C)cc4o3)oc2c1	4.09%
CC(=O)C1=C(C)NC(=O)NC1c1ccccc1 (stereo not drawn)	8.76%
CCOC(=O)N1CCC(NC(=O)C(NS(=O)(=O)c2ccc3c(c2)CCN3C(=O)CC)C(C)C)CC1 (stereo not drawn)	-6.47%
COc1cc2cc(C(=O)Nc3ccc4c(c3)OCCO4)[nH]c2cc1OC	20.7%
Cc1ccc(OCC(=O)Nc2cc(C(=O)O)cc(C(=O)O)c2)cc1C	8.87%
C/C(CC(=O)Nc1ccc(N(C)C)cc1)=N\NC(=O)c1ccccn1	7.77%
Cc1noc(C)c1COC(=O)C1CCN(S(=O)(=O)c2ccc(F)cc2)CC1	-33.7%

SMILES	hERG current change (%, negative = inhibition) at 10uM
CCOc1ccc(Cc2nnc(SCC(N)=O)n2C)cc1	-1.77%
Cc1cccc(C)c1NC(=O)NNC(=O)c1cc(C(C)(C)C)nn1Cc1ccccc1	0.818%
Cc1ccc(-n2nnc3c(=O)oc4ccccc4c32)cc1	5.81%
COC(=O)c1cc(NC(=O)C2CC(=O)NC(=NCc3ccc(OC)cc3)S2)cc(C(=O)OC)c1 (stereo not drawn)	3.45%
CC(C)(C)NC(=O)NC(=O)CN1CCN(S(=O)(=O)c2ccc3c(c2)OCCO3)CC1	-3.8%
COc1cc2ncnc(NCc3cccs3)c2cc1OC	-17.3%
Nc1ccc(-c2nnnn2-c2ccc(N)cc2)cc1	26.5%
CCOC(=O)N1CCN(c2c(-c3ccc(C)cc3)c(=O)c2=O)CC1	-29.7%
CCCC1(C(=O)OC)NC(c2ccc(OC)c(OC)c2)C2C(=O)N(c3ccc4c(c3)OCO4)C(=O)C21 (stereo not drawn)	16.7%
COC(=O)Nc1nc2c(s1)CCCC2	11%
CCOc1ccc(NC(=O)CN(C)C(=O)c2cc(C)on2)cc1OCC	17.2%
COc1ccc(N(C)C(=O)C2CCN(S(=O)(=O)c3cccc4nsnc34)CC2)cc1	16.2%
O=C(CN1CCOCC1)Nc1ccc(Br)cc1C(=O)c1ccccc1	-32.4%
O=C(Nc1cccc(C(=O)Nc2cccc(C(F)(F)F)c2)c1)c1ccc(=O)[nH]c1	10%
CC(=O)Oc1cccc(N2C(=O)C3C4C=CC(CC4)C3C2=O)c1 (stereo not drawn)	16.1%
CN(C)S(=O)(=O)c1ccc(C(=O)Nc2ccc(CN3CCCC3)cc2)cc1	-2.62%
COc1ccccc1/C=C/C(=O)NCCC1=CCCCC1	14.9%
Cc1cccc(NC(=S)NCCCN2CCOCC2)c1	-8.63%
COc1ccc(-n2c(C)nc3c(cnn3-c3ccc(C)cc3)c2=O)cc1	-32.2%

SMILES	hERG current change (%, negative = inhibition) at 10uM
Cc1ccc(CN(C(=O)c2csnn2)C(C(=O)NC2CCCC2)c2cccnc2)cc1 (stereo not drawn)	-7.95%
OCc1ccc(N=Nc2ccccc2)cc1	3.29%
COc1ccc2oc(=O)c(-c3nnc(NCc4ccco4)s3)cc2c1	-0.652%
CCc1cc2cc3c(cc2nc1SCC(=O)Nc1cc(C)on1)OCO3	4.89%
Cc1cc(C)n2[nH]c(=O)c(N=Nc3cccc(C(F)(F)F)c3)c2n1	-23.8%
Cc1ccc(NC(=O)CN2CCOCC2)cc1	14.1%
CCCCn1c(=O)c(C(=O)Nc2ccccc2Cl)c(O)c2ccccc21	18.3%
CC(C)(C)NC(=O)C(c1cccs1)N(Cc1cccs1)C(=O)c1ccc(CN2CCOCC2)o1 (stereo not drawn)	1.44%
COc1ccc(CCNC(=O)CN2CCC(C(N)=O)CC2)cc1	14.8%
COc1ccc(NC(=O)C2CCN(S(=O)(=O)c3cccc4nonc34)CC2)cc1OC	3.96%
CCc1ccc(CN(C)C(=O)c2cc(COc3cccc(C(F)(F)F)c3)on2)nc1	-22.3%
CCOC(=O)C1(C)/C(=N/Nc2ccccc2)C(=O)C(=O)N1c1ccccc1 (stereo not drawn)	-18.3%
CC(C)NC(=O)NC(=O)CSc1nnc(C(F)(F)F)n1C	8.44%
O=C(N/N=C/c1ccncc1)c1ccccc1[N+](=O)[O-]	2.56%
C/C(=N\O)C(=O)OC1CC(C)CCC1C(C)C (stereo not drawn)	-0.433%
COc1ccc(CCNC(=O)COc2ccc([N+](=O)[O-])cc2)cc1	-31.1%
COc1ccc(S(=O)(=O)N2CCN(C(=O)c3ccco3)CC2)cc1C(C)(C)C	4.96%
COCCCN=C1NN=C(c2cc(C)n(Cc3ccccc3Cl)c2C)CS1	-6.95%
Cc1cc(C(=O)Nc2ccc(Br)cc2)c2ccccc2n1	17%
